In all, about 44,000 compounds went through this assay and about 340 (0.77%) were called active. About 5% were inconclusive and are not listed. Calls follow the shape of the dose curve; as a rule, active = well fitted inhibition curve with a large enough effect; inconclusive = small, poorly fitted or top-dose-only effect; inactive = flat fitted curve, though single readings scatter. The list shows a part of the results.
assay: Acumen qHTS Assay for Inhibitors of the mTORC1 Signaling Pathway in MEF (Tsc2-/-, p53-/-) Cells: Sytravon; conditions: phospho-rpS6 immunofluorescence/PI, 24 h; series mostly up to 38.3 µM; activity change, negative = inhibition: at the top concentration;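 also: plate controls were DMSO for no effect and rapamycin for full effect; nearly all actives have a fitted effect of over 50% in size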
In short: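 Compounds act on Tsc2-/-, p53-/- fibroblasts carrying an empty vector for 24 h before fixation and dual staining for phospho-S6 and DNA (propidium iodide). Values are percentages of cells above a rapamycin-defined pS6/PI threshold.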

Activity change, negative = inhibition, inactive:
Cc1c(Cl)cccc1-c1ccc(CNCCSc2nnnn2-c2ccccc2)o1 -2.06%, CCS(=O)(=O)c1ncc(N(Cc2ccccc2)Cc2ccco2)c(C(=O)Nc2cccc(Cl)c2C)n1 1.14%, COc1ccccc1C(=O)Nc1ccc2nc(SCC(=O)N(C)c3ccccc3)sc2c1 1.07%, CCOc1ccc(NC(=O)C(Cc2ccccc2)NS(=O)(=O)c2ccc3c(c2)oc(=O)n3C)cc1 (centres undefined) -13.6%, CCN(CC)S(=O)(=O)c1ccc(NC(=O)CN(c2ccccc2)S(=O)(=O)N(C)C)cc1 4.28%, O=C(CN1C(=O)C2(SCC(=O)N2c2cccc(Cl)c2)c2ccccc21)NCCc1ccccc1 (centres undefined) -3.07%, CCOc1ccc(NC(=O)c2c(Nc3ccccc3C)sc(C(=O)c3ccccc3)c2N)cc1 -3.29%, CCOc1ccc(CNC(=O)c2ccc3c(c2)c(C)c(C)n3Cc2ccccc2)cc1OC -4.44%, Cc1ccc(-n2ncc(C(=O)N3CCN(c4cc(Cl)ccc4C)CC3)c2C2CCN(C(=O)OC(C)(C)C)CC2)cc1 -3.93%, COC(=O)c1ccc(Cl)cc1NC(=O)Nc1nnc(N2CCCC2)s1 -0.231%, COc1ccc(CCNC(=O)c2ccc3c(c2)N(Cc2ccccc2)C(=O)c2ccccc2S3=O)cc1OC (centres undefined) 0.617%, COc1ccc(CCn2c3c(c(=O)[nH]c2=O)C(NC(=O)c2ccc(Cl)cc2)(C(F)(F)F)C(=O)N3)cc1OC (centres undefined) 3.61%, COC(=O)CSc1ncc2c(n1)-c1ccccc1N(Cc1ccc(Cl)cc1)S2(=O)=O 7.81%, COc1ccc(CNc2ncnc3c2nc2n3CCCC2)cc1 2.53%, Cc1cccc(OCC(=O)Nc2ccccc2C(=O)OCc2cc(=O)n3ccsc3n2)c1 0%, COc1cccc(NC(=O)CN2C(=O)c3cccc4cccc2c34)c1 -0.656%, Cn1ncc2c(Nc3cc(C(F)(F)F)ccc3Cl)ncnc21 11.4%, CC(NC(=O)c1ccc2c(c1)N(Cc1ccc(Cl)cc1)C(=O)CS2)c1ccccc1 (centres undefined) -14.7%, CCN(c1cccc(C)c1)S(=O)(=O)c1cc(Br)cc2c1N(C(C)=O)C(C)C2 (centres undefined) 0.171%, COc1ccc2c(c1)c1c(c(=O)n(-c3ccccc3C)c(=O)n1Cc1cccc(C(F)(F)F)c1)n2C 0.782%, CC(C)OC(=O)c1ccc(Cn2nnc3sc4c(c3c2=O)CCCC4)cc1 -2.03%, CCc1ccc(-n2nnc(-c3nc(-c4cccs4)no3)c2N)cc1 0.254%, CC1CCN(C(=O)CSc2n[nH]c(-c3ccc(F)cc3)n2)CC1 -11.9%, CCCN(c1c(C)n(C)n(-c2ccccc2)c1=O)S(=O)(=O)c1ccc(C)cc1 1.13%, CCc1nc2ccc(C(=O)N3CCN(c4cc(Cl)ccc4C)CC3)cc2nc1CC -1.18%, Cc1ccc(S(=O)(=O)NCC2CCC(C(=O)NCCc3ccccc3)CC2)cc1 (centres undefined) 2.59%, CC(=O)Nc1ccc(S(=O)(=O)NC2(C(F)(F)F)C(=O)Nc3c2c(=O)[nH]c(=O)n3-c2cccc(Cl)c2)cc1 (centres undefined) 3.62%, CCOC(=O)c1cnc2cc(C(F)(F)F)ccc2c1Nc1ccc(F)cc1F -16.9%, CCC(=O)N1CCc2cc(CNS(=O)(=O)c3cc(OC)ccc3OC)ccc21 0%, O=C(c1ccc(F)cc1)c1cn(Cc2ccccc2F)c2cc3c(cc2c1=O)OCCO3 0.385%, Cc1cccc(-c2nc(CN3CCCC(C(=O)N4CCN(c5cc(Cl)ccc5C)CC4)C3)c(C)o2)c1 (centres undefined) -15%, Oc1ccc(Cl)cc1C1=Nc2ccccc2N=C(c2ccccc2)C1 8.97%, Cc1ccc(CSc2nc3cccnc3n2Cc2ccc(C(=O)NCc3ccco3)cc2)cc1 0.244%, Cc1ccc(-c2nc3c(c(SCc4ccc(Br)cc4)n2)Cc2c(CO)cnc(C)c2O3)cc1 1.87%, O=C(CSc1nc2c([nH]c3ccccc32)c(=O)n1-c1ccc(Cl)cc1)N1CCc2ccccc21 -17.6%, CSc1cccc(NC(=O)c2cnn(-c3ccc(F)cc3)c2-n2cccc2)c1 -2.32%, O=C(Cn1ncn2c(cc3sccc32)c1=O)NCCc1ccccc1 -2.03%, COc1ccc(CCNC(=O)CCc2c(C)c3cc4c(C)c(C)oc4cc3oc2=O)cc1OC 1.8%, Cc1ccc2c(=O)cc(C(=O)Nc3ccc(S(=O)(=O)N(C)c4ccccc4)cc3)oc2c1C 1.39%, O=C(CSc1nc2ccccc2nc1Cc1ccc(Cl)cc1)Nc1ccc2c(c1)OCO2 -18.8%, CC(=O)N1c2ccccc2C(=O)C1N1CCN(c2ccccc2F)CC1 (centres undefined) 8.02%, CCC(C(=O)Nc1cccc(Cl)c1C)n1nc(C)c2sc3ccccc3c2c1=O (centres undefined) -0.0926%, COc1ccc(-c2noc(CN(C)S(=O)(=O)c3c(C)cc(C)cc3C)n2)cc1OC -1.71%, COc1ccc(C)cc1NC(=O)c1ccc(NS(=O)(=O)c2c(C)noc2C)cc1 -5.51%, Cc1ccc(-c2nc(CCNC(=O)c3ccc(C)c(C)c3)cs2)cc1 -13.6%, CCOC(=O)c1ccc(NC2=CC(c3ccc(OCC)cc3)N(c3ccc(C(=O)OCC)cc3)C2=O)cc1 (centres undefined) 8.17%, CCOC(=O)c1cnc2cc(C(F)(F)F)ccc2c1Nc1cc(C)ccc1OC -18.9%, CCCCn1cc(S(=O)(=O)c2ccc(C)cc2)c(=O)c2cc(F)c(N3CCCCC3)cc21 -6.42%, CCOc1ccccc1NC(=O)CSc1nnc2[nH]c(=O)cc(C)n12 5.81%, Cc1cc(O)c(C(c2ccccc2)N2CCCCC2)c(=O)n1Cc1ccco1 (centres undefined) 1.04%, COc1ccccc1-c1nc2n(n1)C(c1ccccc1Cl)C(C(=O)Nc1cccnc1)=C(C)N2 (centres undefined) -7.26%, CCSc1nn(CC(=O)Nc2cccc(CC)c2)c(N)c1S(=O)(=O)c1ccccc1 -4.05%, COCCCNC(=O)C1CCN(Cc2cc3ccccc3n2Cc2ccccc2C)CC1 -12.3%, Cc1oc(-c2ccc(Cl)cc2)nc1CN1CCCC(C(=O)NCCc2ccc(Cl)cc2)C1 (centres undefined) -3.31%, Cc1ccc(S(=O)(=O)c2c(O)cc(C)c(NS(=O)(=O)c3ccc(Br)cc3)c2C)cc1 -2.02%, COc1ccc(NC(=O)c2c(NCc3cccs3)sc3c2CCC(C)C3)c(OC)c1 (centres undefined) -20.2%, O=C(CSc1nnc(-c2ccccc2Cl)o1)N1CCCc2ccccc21 8.26%, Cc1c(C(=O)N(Cc2ccccc2F)C2CCS(=O)(=O)C2)oc2ccccc12 (centres undefined) 3.54%, CCOc1ccc(C(=O)c2cn(CC(=O)Nc3ccc(Cl)cc3)c3cc4c(cc3c2=O)OCO4)cc1 2.16%, COc1ccc(-c2nnc(SCC(=O)Nc3cccc(C(F)(F)F)c3)s2)cc1 -6.74%, Cc1nn(C)c2c1c(C(F)(F)F)cc(=O)n2C(C)C(=O)Nc1ccccc1F (centres undefined) -9.43%, CC(=O)N1CCc2cc(Br)cc(S(=O)(=O)CCC(=O)N3CCN(c4ccc(F)cc4)CC3)c21 0%, COc1cc(/C=C/c2nc(C#N)c(N3CCN(C)CC3)o2)cc(OC)c1OC 3.36%, COc1cccc(NS(=O)(=O)c2ccc3c(c2)n(C)c(=O)n3C)c1 -24%, COc1ccc(NC(=O)COCc2cc(-c3ccc4c(c3)OCO4)on2)cc1 0.919%, CN(C(=O)c1ccc2c(c1)N(Cc1cccc(Cl)c1)C(=O)c1ccccc1S2(=O)=O)C1CCCCC1 0.868%, CSc1cccc(NC(=O)C2CCN(c3nc4ccccc4[nH]3)CC2)c1 -15.7%, Cc1ccc(Cn2c(SCc3ccc(C(=O)NC4CCCCC4)cc3)nc3ccncc32)cc1 -0.273%, COCCNC(=O)c1cnc2sc(N3CCCCC3)nn2c1=O 1.55%, Cc1c(-c2nc(-c3ccccc3)no2)nnn1-c1ccc(F)c(Cl)c1 6.16%, COc1ccc(Cl)c2sc(NC(=O)c3ccc(S(=O)(=O)N4CCOCC4)cc3)nc12 5.24%, CCc1ccc(NC(=O)Cn2c(=O)n(-c3ccc(Cl)c(Cl)c3)c(=O)c3c(C)c(C)sc32)cc1 -11.5%, CN(C(=O)CCc1nc(-c2ccccc2F)no1)c1ccc(Cl)cc1 -9.25%, O=S(=O)(c1ccc(OC(F)(F)F)cc1)N1CCC(c2nnnn2-c2ccc(F)cc2)CC1 -1.3%, Cc1ccc(NC(=O)c2nc(S(C)(=O)=O)ncc2N(Cc2ccc(C(C)(C)C)cc2)Cc2ccco2)cc1C -3.12%, COc1cc(C(=O)NCC(c2ccc3c(c2)OCO3)N2CCOCC2)cc(OC)c1OC (centres undefined) 3.31%, CCCC(O)c1nc2ccccc2n1CCCOc1ccc(Cl)cc1 (centres undefined) -8.35%, CCc1cccc(NC(=O)C2CCCN(c3ncnc4onc(-c5ccc(F)cc5)c34)C2)c1 (centres undefined) -8.67%, COc1ccc(-c2noc(CSCC(=O)Nc3cc(OC)c(OC)c(OC)c3)n2)cc1OC -0.391%, CCn1cc(C(=O)OCC(=O)Nc2ccc(C)c(Cl)c2)c(=O)c2ccc(C)nc21 4.04%, CCN1CCSc2ccc(C(=O)NCc3ccc(OC(C)C)cc3)cc21 -3.81%, CCOc1ccc(-c2cc3c(=O)n(CC(=O)NCc4ccc(C)cc4)ccn3n2)cc1 0%, COc1ccc(N(Cc2cc3ccccc3[nH]c2=O)C(=O)c2cccc(Cl)c2)cc1 -0.397%, CCOC(=O)Cc1ccc(NC(=O)NCc2c(-n3cccc3)sc3c2CCCC3)cc1 0.778%, CC(=O)N1c2ccccc2CC1C(=O)N1CCN(c2ccccc2)CC1 (centres undefined) 0%, Cc1ccc(NC(=O)c2c(C)cc(C)nc2SCC(=O)Nc2ccc(Br)cc2)cc1 -3.26%, CCc1nc2ccc(C(=O)NCCc3ccccc3OC)cc2nc1CC 1.68%, CCCCN1CC(c2nc3ccccc3n2CCCCOc2cc(C)ccc2C)CC1=O (centres undefined) -1.49%, Cc1cc2nc(-c3cccc(NC(=O)c4cccc5ccccc45)c3)oc2cc1C -0.564%, Cc1cccc(OCC(=O)Nc2cccc(OCc3cc(=O)n4cccc(C)c4n3)c2)c1 0%, O=C(/C=C/c1ccccc1)Nc1cc(-c2nc3cc(Cl)ccc3o2)ccc1Cl 1.14%, CCOc1ccc(N2CC(NC(=O)c3ccco3)CC2=O)cc1 (centres undefined) -0.496%, COc1cccc(-n2ccnc2SCC(=O)Nc2c(C)cc(C)cc2C)c1 -4.38%, Cc1cc(C)c(NC(=O)Cn2c(=O)c3cccn3c3ccccc32)c(C)c1 -18.4%

Reference: PubChem BioAssay AID493208 (National Center for Advancing Translational Sciences (NCATS), 2011)
